# Measurements reported in the supplement of paper PMC8728848.
# The other results are listed elsewhere or left out.
# B1: PX9937F-bfa-516-16-516 (Bacteroides fragilis) (protein)
# chain: LDIDPTSSIADSNYWKTEAQFSTFNVGLHALLRECSFNFFLLGEPRADIYGDVPFGGEATQGMERLPFNTINKENTGISNFAGMYKVINQINLMIAKTKETTVLSEAGKNYYLGEAYGMRAYLYFHLLRSWGDVILYLDYTNGASLDLSNLSKAASPAEEVMKQIKEDITASEKGFGSDYSFKYGRYYWSMAATQMLKGEVYLWSGRQMGGGTADYTTAKTALQSIVSNANVSLQDDFSKVFAYNNKDNSEIIFSIRNAKDEYNMWDDRFRQNLVPQQAYMTSTYCNKEGVSFKDLPEGQLNGLIRLQIRYDLYNKAFRDGDTRKDASMTAVYQKQQDGTVKYIAPFCNKYQGVLLDGASQRSFLNDYPIYRYADCLLLLAEAKALLGEDPTAEINQVRERAYGKEFFEANKATLAYPNDKGDFYTDNKYMSGDEDPLEAILKERMREFMFEGKRWYDLRLLGADYVTKRTSAVATRLLWPINESVLTDNPALKQTPGYQN
# Tests used:
# Assay in all cases: glycan array binding signal (z-score within array); higher = stronger binding
# Conditions in all cases: glycan notation: IUPAC condensed, linker removed
# Fuc(a1-3)GlcNAc = molecular target: Fuc(a1-3)GlcNAc
# How it was run: (§1)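 The binding signal is a Z-score computed within each array and averaged over linkers. Arrays of the same protein sequence at different concentrations or buffers were also averaged together. Data originate from 3228 arrays in the Consortium for Functional Glycomics database, kept only where the protein sequence was available.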
# [1] = molecular target: Fuc(a1-3)[Gal(b1-4)]Glc6S
# How it was run: as §1
# [2] = molecular target: Fuc(a1-3)[Gal(b1-4)]GlcNAc
# How it was run: as §1
# [3] = molecular target: Fuc(a1-3)[Gal(b1-4)]GlcNAc(b1-2)Man
# How it was run: as §1
# [4] = molecular target: Fuc(a1-3)[Gal(b1-4)]GlcNAc(b1-2)Man(a1-3)[Fuc(a1-3)[Gal(b1-4)]GlcNAc(b1-2)Man(a1-6)]Man(b1-4)GlcNAc(b1-4)GlcNAc
# How it was run: as §1
# [5] = molecular target: Fuc(a1-3)[Gal(b1-4)]GlcNAc(b1-2)Man(a1-3)[Fuc(a1-3)[Gal(b1-4)]GlcNAc(b1-2)Man(a1-6)]Man(b1-4)GlcNAc(b1-4)[Fuc(a1-6)]GlcNAc
# How it was run: as §1
# [6] = molecular target: Fuc(a1-3)[Gal(b1-4)]GlcNAc(b1-3)Gal(b1-3)[Fuc(a1-4)]GlcNAc
# How it was run: as §1
# [7] = molecular target: Fuc(a1-3)[Gal(b1-4)]GlcNAc(b1-3)Gal(b1-4)[Fuc(a1-3)]GlcNAc
# How it was run: as §1
# [8] = molecular target: Fuc(a1-3)[Gal(b1-4)]GlcNAc(b1-3)Gal(b1-4)[Fuc(a1-3)]GlcNAc(b1-3)Gal(b1-4)[Fuc(a1-3)]GlcNAc
# How it was run: as §1
# [9] = molecular target: Fuc(a1-3)[Gal(b1-4)]GlcNAc(b1-3)GalNAc
# How it was run: as §1
# [10] = molecular target: Fuc(a1-3)[Gal(b1-4)]GlcNAc(b1-6)GalNAc
# How it was run: as §1
# [11] = molecular target: Fuc(a1-3)[Gal(b1-4)]GlcNAc(b1-6)[Gal(b1-3)GlcNAc(b1-3)]Gal(b1-4)Glc
# How it was run: as §1
# [12] = molecular target: Fuc(a1-3)[Gal(b1-4)]GlcNAc6S
# How it was run: as §1
# [13] = molecular target: Fuc(a1-3)[Gal3S(b1-4)]Glc
# How it was run: as §1
# [14] = molecular target: Fuc(a1-3)[Gal3S(b1-4)]GlcNAc
# How it was run: as §1
# [15] = molecular target: Fuc(a1-3)[Gal3S(b1-4)]GlcNAc6S
# How it was run: as §1
# [16] = molecular target: Fuc(a1-3)[GalNAc(b1-4)]GlcNAc
# How it was run: as §1
# [17] = molecular target: Fuc(a1-3)[GalNAc(b1-4)]GlcNAc6S
# How it was run: as §1
# Fuc(a1-4)GlcNAc = molecular target: Fuc(a1-4)GlcNAc
# How it was run: as §1
# Fuc(b1-3)GlcNAc = molecular target: Fuc(b1-3)GlcNAc
# How it was run: as §1
# Gal(a1-2)Gal = molecular target: Gal(a1-2)Gal
# How it was run: as §1
# Gal(a1-3)Gal = molecular target: Gal(a1-3)Gal
# How it was run: as §1
# Gal(a1-3)Gal(b1-3)GlcNAc = molecular target: Gal(a1-3)Gal(b1-3)GlcNAc
# How it was run: as §1
# [18] = molecular target: Gal(a1-3)Gal(b1-3)GlcNAc(b1-2)Man
# How it was run: as §1
# [19] = molecular target: Gal(a1-3)Gal(b1-3)GlcNAc(b1-2)Man(a1-3)[Gal(a1-3)Gal(b1-3)GlcNAc(b1-2)Man(a1-6)]Man(b1-4)GlcNAc(b1-4)GlcNAc
# How it was run: as §1
# [20] = molecular target: Gal(a1-3)Gal(b1-3)GlcNAc(b1-3)GalNAc
# How it was run: as §1
# [21] = molecular target: Gal(a1-3)Gal(b1-3)GlcNAc(b1-6)GalNAc
# How it was run: as §1
# [22] = molecular target: Gal(a1-3)Gal(b1-3)[Fuc(a1-4)]GlcNAc(b1-2)Man(a1-3)[Gal(a1-3)Gal(b1-3)[Fuc(a1-4)]GlcNAc(b1-2)Man(a1-6)]Man(b1-4)GlcNAc(b1-4)GlcNAc
# How it was run: as §1
# Gal(a1-3)Gal(b1-4)Glc = molecular target: Gal(a1-3)Gal(b1-4)Glc
# How it was run: as §1
# Gal(a1-3)Gal(b1-4)GlcNAc = molecular target: Gal(a1-3)Gal(b1-4)GlcNAc
# How it was run: as §1
binder,measurement,setting,value
B1,glycan array binding signal (z-score),Fuc(a1-3)GlcNAc,-0.041
same,glycan array binding signal (z-score),[1],0.074
same,glycan array binding signal (z-score),[2],-0.071
same,glycan array binding signal (z-score),[3],-0.261
same,glycan array binding signal (z-score),[4],-0.045
same,glycan array binding signal (z-score),[5],0.591
same,glycan array binding signal (z-score),[6],-0.161
same,glycan array binding signal (z-score),[7],-0.038
same,glycan array binding signal (z-score),[8],-0.262
same,glycan array binding signal (z-score),[9],-0.327
same,glycan array binding signal (z-score),[10],-0.091
same,glycan array binding signal (z-score),[11],-0.077
same,glycan array binding signal (z-score),[12],-0.414
same,glycan array binding signal (z-score),[13],-0.283
same,glycan array binding signal (z-score),[14],-0.036
same,glycan array binding signal (z-score),[15],-0.134
same,glycan array binding signal (z-score),[16],0.75
same,glycan array binding signal (z-score),[17],0.193
same,glycan array binding signal (z-score),Fuc(a1-4)GlcNAc,-0.192
same,glycan array binding signal (z-score),Fuc(b1-3)GlcNAc,-0.353
same,glycan array binding signal (z-score),Gal(a1-2)Gal,0.437
same,glycan array binding signal (z-score),Gal(a1-3)Gal,-0.019
same,glycan array binding signal (z-score),Gal(a1-3)Gal(b1-3)GlcNAc,1.46
same,glycan array binding signal (z-score),[18],-0.215
same,glycan array binding signal (z-score),[19],-0.137
same,glycan array binding signal (z-score),[20],-0.071
same,glycan array binding signal (z-score),[21],-0.3
same,glycan array binding signal (z-score),[22],-0.016
same,glycan array binding signal (z-score),Gal(a1-3)Gal(b1-4)Glc,-0.286
same,glycan array binding signal (z-score),Gal(a1-3)Gal(b1-4)GlcNAc,-0.429
